The record followed here is paper PMC3585124.

Sequences of proteins named here, by UniProt entry; tags and fusion partners are left off. A change or cut given only in a name is not applied to a line headed by its entry. A line that says so, or that is headed by a name, gives the form on record, which may keep a tag or linker.
Nbs1-(1–335)-K160M-GST (O60934, form named): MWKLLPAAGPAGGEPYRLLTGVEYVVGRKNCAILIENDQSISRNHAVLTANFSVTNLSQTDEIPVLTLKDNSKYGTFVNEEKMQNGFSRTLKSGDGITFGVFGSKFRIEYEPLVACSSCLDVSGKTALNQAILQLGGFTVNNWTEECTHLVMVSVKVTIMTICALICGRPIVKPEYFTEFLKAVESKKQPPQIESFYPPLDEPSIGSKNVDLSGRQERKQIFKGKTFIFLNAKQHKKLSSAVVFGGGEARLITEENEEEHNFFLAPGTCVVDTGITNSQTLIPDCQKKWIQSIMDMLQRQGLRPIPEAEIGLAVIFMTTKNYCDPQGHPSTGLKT
Nbs1-(1–335)-R28A-GST (O60934, form named): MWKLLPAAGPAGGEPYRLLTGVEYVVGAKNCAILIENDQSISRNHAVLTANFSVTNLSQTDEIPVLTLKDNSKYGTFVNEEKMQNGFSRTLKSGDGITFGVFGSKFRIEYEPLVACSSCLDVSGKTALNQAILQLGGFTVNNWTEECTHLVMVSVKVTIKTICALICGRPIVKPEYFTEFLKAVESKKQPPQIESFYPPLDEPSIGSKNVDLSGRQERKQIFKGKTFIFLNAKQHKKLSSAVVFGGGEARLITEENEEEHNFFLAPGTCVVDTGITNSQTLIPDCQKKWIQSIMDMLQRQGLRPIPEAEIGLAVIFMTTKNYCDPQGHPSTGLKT

In assay [1] the target is Nbs1-(1–335)-K160M-GST (human) (UniProt O60934). In words: pull-down; GST pull-down from Sf21 insect cells co-infected with baculoviruses for the GST-tagged partner (bait) and the Flag-tagged partner; NETN buffer; immunoblotting.
Assay [2] deals with Nbs1-(1–335)-R28A-GST (human) (UniProt O60934). Described as above.

No constants are given. Whether binding was seen depends on the method and setting. In cells and extracts the contact can be indirect. Some entries that bind do so weakly or less than the wild type.

B1: CtIP-(200–600)-T245A/T315A (domain or fragment, UniProt Q99708 200-600)
chain: ANEMRKVSKSSTHPQHNPNENEILVADTYDQSQSPMAKAHGTSSYAPDKSSFNLATVVAETLGLGVQEESETQGPMSPLGDELYHCLEGNHKKQPFEESTRNTEDSLRFSDSTSKAPPQEELPTRVSSPVFGATSSIKSGLDLNTSLSPSLLQPGKKKHLKTLPFSNTCISRLEKTRSKSEDSALFTHHSLGSEVNKIIIQSSNKQILINKNISESLGEQNRTEYGKDSNTDKHLEPLKSLGGRTSKRKKTEEESEHEVSCPQASFDKENAFPFPMDNQFSMNGDCVMDKPLDLSDRFSAIQRQEKSQGSETSKNKFRQVTLYEALKTIPKGFSSSRKASDGNCTLPKDSPGEPCSQECIILQPLNKCSPDNKPSLQIKEENAVFKIPLRPRESLETENVL
For the molecule B1, the binding entry in assay [1] is “binds”.

B2: CtIP-(200–600)-S233A/S276A/S347A (domain or fragment, UniProt Q99708 200-600)
chain: ANEMRKVSKSSTHPQHNPNENEILVADTYDQSQAPMAKAHGTSSYTPDKSSFNLATVVAETLGLGVQEESETQGPMAPLGDELYHCLEGNHKKQPFEESTRNTEDSLRFSDSTSKTPPQEELPTRVSSPVFGATSSIKSGLDLNTSLAPSLLQPGKKKHLKTLPFSNTCISRLEKTRSKSEDSALFTHHSLGSEVNKIIIQSSNKQILINKNISESLGEQNRTEYGKDSNTDKHLEPLKSLGGRTSKRKKTEEESEHEVSCPQASFDKENAFPFPMDNQFSMNGDCVMDKPLDLSDRFSAIQRQEKSQGSETSKNKFRQVTLYEALKTIPKGFSSSRKASDGNCTLPKDSPGEPCSQECIILQPLNKCSPDNKPSLQIKEENAVFKIPLRPRESLETENVL
Take B2: the binding result in assay [2] is given as “no binding”.
